# Measured values as given in the supplement of paper PMC8728848.
# The other results are listed elsewhere or left out.
# B1: DC-ASGPR S+GEE (Homo sapiens) (protein)
# chain: MTRTYENFQYLENKVKVQGFKNGPLPLQSLLQRLRSGPCHLLLSLGLGLLLLVIICVVGFQNSKFQRDLVTLRTDFSNFTSNTVAEIQALTSQGSSLEETIASLKAEVEGFKQERQAVHSEMLLRVQQLVQDLKKLTCQVATINNNGEEASTEGTCCPVNWVEHQDSCYWFSHSGMSWAEAEKYCQLKNAHLVVINSREEQNFVQKYLGSAYTWMGLSDPEGAWKWVDGTDYATGFQNWKPGQPDDWQGHGLGGGEDCAHFHPDGRWNDDVCQRPYHWVCEAGLGQTSQESH
# Experiments:
# Test in all cases: glycan array binding signal (z-score within array); higher = stronger binding
# Conditions in all cases: glycan notation: IUPAC condensed, linker removed
# Fuc(a1-2)Gal = target: Fuc(a1-2)Gal
# Summary of the method: (§1)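 The Consortium for Functional Glycomics database supplied 3228 glycan arrays, of which those lacking an available protein sequence were dropped. The binding signal, a within-array Z-score, was averaged across arrays of the same protein sequence and across linkers. Negative scores can be read as non-binding.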
# Fuc(a1-2)Gal(b1-3)GalNAc = target: Fuc(a1-2)Gal(b1-3)GalNAc
# Summary of the method: as §1
# [1] = target: Fuc(a1-2)Gal(b1-3)GalNAc(a1-3)[Fuc(a1-2)]Gal(b1-4)Glc
# Summary of the method: as §1
# [2] = target: Fuc(a1-2)Gal(b1-3)GalNAc(a1-3)[Fuc(a1-2)]Gal(b1-4)GlcNAc
# Summary of the method: as §1
# [3] = target: Fuc(a1-2)Gal(b1-3)GalNAc(b1-3)Gal
# Summary of the method: as §1
# [4] = target: Fuc(a1-2)Gal(b1-3)GalNAc(b1-3)Gal(a1-4)Gal(b1-4)Glc
# Summary of the method: as §1
# [5] = target: Fuc(a1-2)Gal(b1-3)GalNAc(b1-4)[Neu5Ac(a2-3)]Gal(b1-4)Glc
# Summary of the method: as §1
# Fuc(a1-2)Gal(b1-3)GlcNAc = target: Fuc(a1-2)Gal(b1-3)GlcNAc
# Summary of the method: as §1
# [6] = target: Fuc(a1-2)Gal(b1-3)GlcNAc(b1-2)Man(a1-3)[Fuc(a1-2)Gal(b1-3)GlcNAc(b1-2)Man(a1-6)]Man(b1-4)GlcNAc(b1-4)GlcNAc
# Summary of the method: as §1
# [7] = target: Fuc(a1-2)Gal(b1-3)GlcNAc(b1-2)Man(a1-3)[Fuc(a1-2)Gal(b1-3)GlcNAc(b1-2)Man(a1-6)]Man(b1-4)GlcNAc(b1-4)[Fuc(a1-6)]GlcNAc
# Summary of the method: as §1
# [8] = target: Fuc(a1-2)Gal(b1-3)GlcNAc(b1-3)Gal(b1-4)Glc
# Summary of the method: as §1
# [9] = target: Fuc(a1-2)Gal(b1-3)GlcNAc(b1-3)GalNAc
# Summary of the method: as §1
# [10] = target: Fuc(a1-2)Gal(b1-3)GlcNAc(b1-3)[Fuc(a1-2)Gal(b1-3)GlcNAc(b1-6)]GalNAc
# Summary of the method: as §1
# [11] = target: Fuc(a1-2)Gal(b1-3)GlcNAc(b1-3)[Gal(b1-4)GlcNAc(b1-6)]Gal(b1-4)Glc
# Summary of the method: as §1
# [12] = target: Fuc(a1-2)Gal(b1-3)GlcNAc(b1-3)[Neu5Ac(a2-6)Gal(b1-4)GlcNAc(b1-6)]Gal(b1-4)Glc
# Summary of the method: as §1
# [13] = target: Fuc(a1-2)Gal(b1-3)GlcNAc6S
# Summary of the method: as §1
# [14] = target: Fuc(a1-2)Gal(b1-3)[Fuc(a1-4)]GlcNAc
# Summary of the method: as §1
# [15] = target: Fuc(a1-2)Gal(b1-3)[Fuc(a1-4)]GlcNAc(b1-2)Man(a1-3)[Fuc(a1-2)Gal(b1-3)[Fuc(a1-4)]GlcNAc(b1-2)Man(a1-3)]Man(b1-4)GlcNAc(b1-4)GlcNAc
# Summary of the method: as §1
# [16] = target: Fuc(a1-2)Gal(b1-3)[Fuc(a1-4)]GlcNAc(b1-2)Man(a1-3)[Fuc(a1-2)Gal(b1-3)[Fuc(a1-4)]GlcNAc(b1-2)Man(a1-6)]Man(b1-4)GlcNAc(b1-4)[Fuc(a1-6)]GlcNAc(b1-4)[Fuc(a1-6)]GlcNAc
# Summary of the method: as §1
# [17] = target: Fuc(a1-2)Gal(b1-3)[Fuc(a1-4)]GlcNAc(b1-3)[Fuc(a1-3)[Gal(b1-4)]GlcNAc(b1-6)]Gal(b1-4)Glc
# Summary of the method: as §1
# [18] = target: Fuc(a1-2)Gal(b1-3)[Fuc(a1-4)]GlcNAc(b1-3)[Gal(b1-4)GlcNAc(b1-6)]Gal(b1-4)Glc
# Summary of the method: as §1
# [19] = target: Fuc(a1-2)Gal(b1-4)Fuc(a1-3)]GlcNAc(b1-2)Man(a1-3)[Fuc(a1-2)Gal(b1-4)[Fuc(a1-3)]GlcNAc(b1-2)Man(a1-6)]Man(b1-4)GlcNAc(b1-4)GlcNAc
# Summary of the method: as §1
# Fuc(a1-2)Gal(b1-4)Glc = target: Fuc(a1-2)Gal(b1-4)Glc
# Summary of the method: as §1
# Fuc(a1-2)Gal(b1-4)Glc6S = target: Fuc(a1-2)Gal(b1-4)Glc6S
# Summary of the method: as §1
# Fuc(a1-2)Gal(b1-4)GlcNAc = target: Fuc(a1-2)Gal(b1-4)GlcNAc
# Summary of the method: as §1
# [20] = target: Fuc(a1-2)Gal(b1-4)GlcNAc(b1-2)Man
# Summary of the method: as §1
# [21] = target: Fuc(a1-2)Gal(b1-4)GlcNAc(b1-2)Man(a1-3)[Fuc(a1-2)Gal(b1-4)GlcNAc(b1-2)Man(a1-6)]Man(b1-4)GlcNAc(b1-4)GlcNAc
# Summary of the method: as §1
# [22] = target: Fuc(a1-2)Gal(b1-4)GlcNAc(b1-2)Man(a1-3)[Fuc(a1-2)Gal(b1-4)GlcNAc(b1-2)Man(a1-6)]Man(b1-4)GlcNAc(b1-4)[Fuc(a1-6)]GlcNAc
# Summary of the method: as §1
# [23] = target: Fuc(a1-2)Gal(b1-4)GlcNAc(b1-2)[Fuc(a1-2)Gal(b1-4)GlcNAc(b1-4)]Man(a1-3)[Fuc(a1-2)Gal(b1-4)GlcNAc(b1-2)Man(a1-6)]Man(b1-4)GlcNAc(b1-4)GlcNAc
# Summary of the method: as §1
# [24] = target: Fuc(a1-2)Gal(b1-4)GlcNAc(b1-3)Gal(b1-4)GlcNAc
# Summary of the method: as §1
# [25] = target: Fuc(a1-2)Gal(b1-4)GlcNAc(b1-3)Gal(b1-4)GlcNAc(b1-2)Man(a1-3)[Fuc(a1-2)Gal(b1-4)GlcNAc(b1-3)Gal(b1-4)GlcNAc(b1-2)Man(a1-6)]Man(b1-4)GlcNAc(b1-4)GlcNAc
# Summary of the method: as §1
# [26] = target: Fuc(a1-2)Gal(b1-4)GlcNAc(b1-3)Gal(b1-4)GlcNAc(b1-3)Gal(b1-4)GlcNAc
# Summary of the method: as §1
# [27] = target: Fuc(a1-2)Gal(b1-4)GlcNAc(b1-3)GalNAc
# Summary of the method: as §1
# [28] = target: Fuc(a1-2)Gal(b1-4)GlcNAc(b1-3)[Fuc(a1-2)Gal(b1-4)GlcNAc(b1-6)]GalNAc
# Summary of the method: as §1
# [29] = target: Fuc(a1-2)Gal(b1-4)GlcNAc(b1-3)[Fuc(a1-3)[Gal(b1-4)]GlcNAc(b1-6)]Gal(b1-4)Glc
# Summary of the method: as §1
# [30] = target: Fuc(a1-2)Gal(b1-4)GlcNAc(b1-6)GalNAc
# Summary of the method: as §1
# [31] = target: Fuc(a1-2)Gal(b1-4)GlcNAc6S
# Summary of the method: as §1
# [32] = target: Fuc(a1-2)Gal(b1-4)[Fuc(a1-3)]GlcNAc
# Summary of the method: as §1
# [33] = target: Fuc(a1-2)Gal(b1-4)[Fuc(a1-3)]GlcNAc(b1-2)Man(a1-3)[Fuc(a1-2)Gal(b1-4)[Fuc(a1-3)]GlcNAc(b1-2)Man(a1-6)]Man(b1-4)GlcNAc(b1-4)[Fuc(a1-6)]GlcNAc
# Summary of the method: as §1
# [34] = target: Fuc(a1-2)Gal(b1-4)[Fuc(a1-3)]GlcNAc(b1-2)[Fuc(a1-2)Gal(b1-4)[Fuc(a1-3)]GlcNAc(b1-4)]Man(a1-3)[Fuc(a1-2)Gal(b1-4)[Fuc(a1-3)]GlcNAc(b1-2)Man(a1-6)]Man(b1-4)GlcNAc(b1-4)GlcNAc
# Summary of the method: as §1
# [35] = target: Fuc(a1-2)Gal(b1-4)[Fuc(a1-3)]GlcNAc(b1-3)Gal(b1-4)[Fuc(a1-3)]GlcNAc
# Summary of the method: as §1
# [36] = target: Fuc(a1-2)Gal(b1-4)[Fuc(a1-3)]GlcNAc(b1-3)Gal(b1-4)[Fuc(a1-3)]GlcNAc(b1-3)Gal(b1-4)[Fuc(a1-3)]GlcNAc
# Summary of the method: as §1
# [37] = target: Fuc(a1-2)Gal(b1-4)[Fuc(a1-3)]GlcNAc(b1-3)GalNAc
# Summary of the method: as §1
# [38] = target: Fuc(a1-2)Gal(b1-4)[Fuc(a1-3)]GlcNAc(b1-3)[Neu5Ac(a2-6)Gal(b1-4)GlcNAc(b1-6)]Gal(b1-4)Glc
# Summary of the method: as §1
# [39] = target: Fuc(a1-2)Gal3S(b1-4)GlcNAc
# Summary of the method: as §1
binder,measurement,setting,value
B1,glycan array binding signal (z-score),Fuc(a1-2)Gal,-0.317
same,glycan array binding signal (z-score),Fuc(a1-2)Gal(b1-3)GalNAc,-0.328
same,glycan array binding signal (z-score),[1],-0.267
same,glycan array binding signal (z-score),[2],-0.364
same,glycan array binding signal (z-score),[3],-0.299
same,glycan array binding signal (z-score),[4],0.011
same,glycan array binding signal (z-score),[5],0.149
same,glycan array binding signal (z-score),Fuc(a1-2)Gal(b1-3)GlcNAc,-0.292
same,glycan array binding signal (z-score),[6],-0.426
same,glycan array binding signal (z-score),[7],-0.267
same,glycan array binding signal (z-score),[8],-0.316
same,glycan array binding signal (z-score),[9],-0.308
same,glycan array binding signal (z-score),[10],-0.316
same,glycan array binding signal (z-score),[11],-0.097
same,glycan array binding signal (z-score),[12],-0.316
same,glycan array binding signal (z-score),[13],0.152
same,glycan array binding signal (z-score),[14],-0.32
same,glycan array binding signal (z-score),[15],-0.328
same,glycan array binding signal (z-score),[16],-0.232
same,glycan array binding signal (z-score),[17],-0.292
same,glycan array binding signal (z-score),[18],-0.313
same,glycan array binding signal (z-score),[19],-0.307
same,glycan array binding signal (z-score),Fuc(a1-2)Gal(b1-4)Glc,0.083
same,glycan array binding signal (z-score),Fuc(a1-2)Gal(b1-4)Glc6S,-0.12
same,glycan array binding signal (z-score),Fuc(a1-2)Gal(b1-4)GlcNAc,-0.064
same,glycan array binding signal (z-score),[20],-0.316
same,glycan array binding signal (z-score),[21],-0.262
same,glycan array binding signal (z-score),[22],-0.237
same,glycan array binding signal (z-score),[23],0.078
same,glycan array binding signal (z-score),[24],0.093
same,glycan array binding signal (z-score),[25],-0.277
same,glycan array binding signal (z-score),[26],-0.337
same,glycan array binding signal (z-score),[27],-0.306
same,glycan array binding signal (z-score),[28],0.072
same,glycan array binding signal (z-score),[29],-0.418
same,glycan array binding signal (z-score),[30],3.59
same,glycan array binding signal (z-score),[31],-0.335
same,glycan array binding signal (z-score),[32],-0.28
same,glycan array binding signal (z-score),[33],-0.252
same,glycan array binding signal (z-score),[34],-0.252
same,glycan array binding signal (z-score),[35],-0.242
same,glycan array binding signal (z-score),[36],-0.276
same,glycan array binding signal (z-score),[37],-0.257
same,glycan array binding signal (z-score),[38],-0.34
same,glycan array binding signal (z-score),[39],0.085
